From the supplement of paper PMC9151546
Single values are uncertain, as repeats are few or missing.

What was measured:
CHO-K1 [1] = experiment: micronucleus frequency (% of nucleated events); higher = more micronuclei (genotoxic)
CHO-K1 [2] = experiment: hypodiploid nuclei frequency (% of nucleated events); higher = more hypodiploid events (aneugenic)
CHO-K1 [3] = experiment: relative survival (nuclei to bead ratio vs DMSO control) (% of vehicle control); higher = more surviving cells
Protocol: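 Flow-cytometric in vitro micronucleus assay (Litron MicroFlow) in CHO-K1 cells in 96-well plates, 19 concentrations (4.5-200 µM, n=1 per concentration). Without S9, cells were exposed for 24 h and sampled at 48 h. With Aroclor 1254-induced rat liver S9, cells were exposed for 3-4 h and sampled at 27-28 h. Read-outs are %MN and %hypodiploid nuclei relative to nucleated events, and relative survival as the nuclei-to-bead ratio versus the 1% DMSO vehicle control (x100).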
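For hypodiploid nuclei frequency (% of nucleated events) in this document: hypodiploid nuclei gated on a flow cytometer with 488 nm excitation after SYTOX Green staining, cultures at 37 °C, positive controls vinblastine without S9 and cyclophosphamide with S9.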
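For micronucleus frequency (% of nucleated events) in this document: cells lysed with nuclei stained by SYTOX Green, then micronucleus-gated events counted against nucleated events by flow cytometry with 488 nm excitation.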
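For relative survival (nuclei to bead ratio vs DMSO control) in this document: Lysed-cell nuclei stained with SYTOX Green and counted against counting beads by flow cytometry at 488 nm excitation, with vinblastine (no S9) and cyclophosphamide (plus S9) as positive controls.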

Cc1cccc(C)c1N [2,6-Dimethylaniline]
Details | hypodiploid nuclei frequency, CHO-K1 [2] [%] | micronucleus frequency, CHO-K1 [1] [%] | relative survival, CHO-K1 [3]
concentration: 4.48 (µM), S9 metabolic activation: with S9, exposure time: 3-4 hours | 0.22 | 1.44 | 139
concentration: 4.48 (µM), S9 metabolic activation: without S9, exposure time: 24 hours | 0.58 | 2.32 | 99.8
concentration: 5.6 (µM), S9 metabolic activation: with S9, exposure time: 3-4 hours | 0.4 | 1.06 | 135
concentration: 5.6 (µM), S9 metabolic activation: without S9, exposure time: 24 hours | 0.46 | 1.82 | 99.8
concentration: 7 (µM), S9 metabolic activation: with S9, exposure time: 3-4 hours | 0.18 | 1.28 | 141
concentration: 7 (µM), S9 metabolic activation: without S9, exposure time: 24 hours | 0.46 | 1.58 | 90.9
concentration: 8.75 (µM), S9 metabolic activation: with S9, exposure time: 3-4 hours | 0.14 | 1.24 | 144
concentration: 8.75 (µM), S9 metabolic activation: without S9, exposure time: 24 hours | 0.7 | 1.94 | 151
concentration: 10.9 (µM), S9 metabolic activation: with S9, exposure time: 3-4 hours | 0.16 | 1 | 121
concentration: 10.9 (µM), S9 metabolic activation: without S9, exposure time: 24 hours | 0.4 | 1.6 | 115
concentration: 13.7 (µM), S9 metabolic activation: with S9, exposure time: 3-4 hours | 0.24 | 1.1 | 120
concentration: 13.7 (µM), S9 metabolic activation: without S9, exposure time: 24 hours | 0.62 | 1.4 | 111
concentration: 17.1 (µM), S9 metabolic activation: with S9, exposure time: 3-4 hours | 0.2 | 1.14 | 129
concentration: 17.1 (µM), S9 metabolic activation: without S9, exposure time: 24 hours | 0.32 | 1.9 | 99.8
concentration: 21.4 (µM), S9 metabolic activation: with S9, exposure time: 3-4 hours | 0.24 | 1.38 | 120
concentration: 21.4 (µM), S9 metabolic activation: without S9, exposure time: 24 hours | 0.74 | 1.46 | 111
concentration: 26.7 (µM), S9 metabolic activation: with S9, exposure time: 3-4 hours | 0.18 | 1.14 | 173
concentration: 26.7 (µM), S9 metabolic activation: without S9, exposure time: 24 hours | 0.36 | 1.86 | 108
concentration: 33.4 (µM), S9 metabolic activation: with S9, exposure time: 3-4 hours | 0.08 | 1.48 | 116
concentration: 33.4 (µM), S9 metabolic activation: without S9, exposure time: 24 hours | 0.54 | 1.34 | 57.4
concentration: 41.7 (µM), S9 metabolic activation: with S9, exposure time: 3-4 hours | 0.18 | 0.96 | 143
concentration: 41.7 (µM), S9 metabolic activation: without S9, exposure time: 24 hours | 0.5 | 1.22 | 67.2
concentration: 52.2 (µM), S9 metabolic activation: with S9, exposure time: 3-4 hours | 0.14 | 1.02 | 120
concentration: 52.2 (µM), S9 metabolic activation: without S9, exposure time: 24 hours | 0.6 | 2.14 | 59
concentration: 65.2 (µM), S9 metabolic activation: with S9, exposure time: 3-4 hours | 0.18 | 1.06 | 136
concentration: 65.2 (µM), S9 metabolic activation: without S9, exposure time: 24 hours | 0.78 | 1.64 | 50.8
concentration: 81.5 (µM), S9 metabolic activation: with S9, exposure time: 3-4 hours | 0.18 | 1 | 131
concentration: 81.5 (µM), S9 metabolic activation: without S9, exposure time: 24 hours | 0.8 | 2.32 | 87.6
concentration: 102 (µM), S9 metabolic activation: with S9, exposure time: 3-4 hours | 0.18 | 1.04 | 108
concentration: 102 (µM), S9 metabolic activation: without S9, exposure time: 24 hours | 0.94 | 1.7 | 72.2
concentration: 127 (µM), S9 metabolic activation: with S9, exposure time: 3-4 hours | 0.18 | 1.1 | 124
concentration: 127 (µM), S9 metabolic activation: without S9, exposure time: 24 hours | 0.8 | 2.18 | 87.6
concentration: 159 (µM), S9 metabolic activation: with S9, exposure time: 3-4 hours | 0.18 | 1 | 136
concentration: 159 (µM), S9 metabolic activation: without S9, exposure time: 24 hours | 1.26 | 2.02 | 96.3
concentration: 199 (µM), S9 metabolic activation: with S9, exposure time: 3-4 hours | 0.22 | 1.16 | 118
concentration: 199 (µM), S9 metabolic activation: without S9, exposure time: 24 hours | 1.22 | 2.8 | 59

O=C(O)c1ccccc1 [Benzoic acid]
Details | hypodiploid nuclei frequency, CHO-K1 [2] [%] | micronucleus frequency, CHO-K1 [1] [%] | relative survival, CHO-K1 [3]
concentration: 4.53 (µM), S9 metabolic activation: with S9, exposure time: 3-4 hours | 0.24 | 1.32 | 90.7
concentration: 4.53 (µM), S9 metabolic activation: without S9, exposure time: 24 hours | 0.54 | 1.32 | 106
concentration: 5.66 (µM), S9 metabolic activation: with S9, exposure time: 3-4 hours | 0.3 | 1.52 | 93.5
concentration: 5.66 (µM), S9 metabolic activation: without S9, exposure time: 24 hours | 0.34 | 1.2 | 108
concentration: 7.07 (µM), S9 metabolic activation: with S9, exposure time: 3-4 hours | 0.08 | 1.34 | 98
concentration: 7.07 (µM), S9 metabolic activation: without S9, exposure time: 24 hours | 0.58 | 1.48 | 119
concentration: 8.84 (µM), S9 metabolic activation: with S9, exposure time: 3-4 hours | 0.32 | 2.24 | 110
concentration: 8.84 (µM), S9 metabolic activation: without S9, exposure time: 24 hours | 0.58 | 1.44 | 140
concentration: 11.1 (µM), S9 metabolic activation: with S9, exposure time: 3-4 hours | 0.34 | 1.76 | 95.2
concentration: 11.1 (µM), S9 metabolic activation: without S9, exposure time: 24 hours | 0.58 | 1.18 | 117
concentration: 13.8 (µM), S9 metabolic activation: with S9, exposure time: 3-4 hours | 0.38 | 1.68 | 127
concentration: 13.8 (µM), S9 metabolic activation: without S9, exposure time: 24 hours | 0.52 | 1.34 | 116
concentration: 17.3 (µM), S9 metabolic activation: with S9, exposure time: 3-4 hours | 0.6 | 2.32 | 118
concentration: 17.3 (µM), S9 metabolic activation: without S9, exposure time: 24 hours | 0.36 | 1.5 | 132
concentration: 21.6 (µM), S9 metabolic activation: with S9, exposure time: 3-4 hours | 0.32 | 1.48 | 110
concentration: 21.6 (µM), S9 metabolic activation: without S9, exposure time: 24 hours | 0.48 | 1.52 | 116
concentration: 27 (µM), S9 metabolic activation: with S9, exposure time: 3-4 hours | 0.26 | 0.94 | 88.5
concentration: 27 (µM), S9 metabolic activation: without S9, exposure time: 24 hours | 0.64 | 1.82 | 97
concentration: 33.7 (µM), S9 metabolic activation: with S9, exposure time: 3-4 hours | 0.26 | 1.36 | 89.8
concentration: 33.7 (µM), S9 metabolic activation: without S9, exposure time: 24 hours | 0.52 | 1.4 | 104
concentration: 42.2 (µM), S9 metabolic activation: with S9, exposure time: 3-4 hours | 0.22 | 1.88 | 76.2
concentration: 42.2 (µM), S9 metabolic activation: without S9, exposure time: 24 hours | 0.62 | 1.12 | 104
concentration: 52.7 (µM), S9 metabolic activation: with S9, exposure time: 3-4 hours | 0.28 | 1.46 | 93
concentration: 52.7 (µM), S9 metabolic activation: without S9, exposure time: 24 hours | 0.52 | 1.34 | 111
concentration: 65.9 (µM), S9 metabolic activation: with S9, exposure time: 3-4 hours | 0.22 | 1.3 | 96.7
concentration: 65.9 (µM), S9 metabolic activation: without S9, exposure time: 24 hours | 0.7 | 1.38 | 104
concentration: 82.3 (µM), S9 metabolic activation: with S9, exposure time: 3-4 hours | 0.22 | 2.14 | 99.6
concentration: 82.3 (µM), S9 metabolic activation: without S9, exposure time: 24 hours | 0.5 | 1.66 | 104
concentration: 103 (µM), S9 metabolic activation: with S9, exposure time: 3-4 hours | 0.32 | 1.64 | 109
concentration: 103 (µM), S9 metabolic activation: without S9, exposure time: 24 hours | 0.82 | 1.7 | 101
concentration: 129 (µM), S9 metabolic activation: with S9, exposure time: 3-4 hours | 0.34 | 1.86 | 107
concentration: 129 (µM), S9 metabolic activation: without S9, exposure time: 24 hours | 1 | 1.9 | 98.4
concentration: 161 (µM), S9 metabolic activation: with S9, exposure time: 3-4 hours | 0.4 | 1.36 | 119
concentration: 161 (µM), S9 metabolic activation: without S9, exposure time: 24 hours | 1.16 | 1.64 | 86.3
concentration: 201 (µM), S9 metabolic activation: with S9, exposure time: 3-4 hours | 0.3 | 1.18 | 111
concentration: 201 (µM), S9 metabolic activation: without S9, exposure time: 24 hours | 1.06 | 2.02 | 90.7
